Assay results reported in publication PMC5655503.
No constants are given. Whether binding was seen depends on the method and setting. In cells and extracts the contact can be indirect. Some binding calls cover weakened binding; strength is not graded here.

The chains behind the UniProt entries cited, without tags or fusion partners. Where a name states a change or a piece, a line headed by the entry shows the natural chain unless it says otherwise. A line that says so, or that is headed by a name, gives the form on record, which may keep a tag or linker.
UniProt P15381: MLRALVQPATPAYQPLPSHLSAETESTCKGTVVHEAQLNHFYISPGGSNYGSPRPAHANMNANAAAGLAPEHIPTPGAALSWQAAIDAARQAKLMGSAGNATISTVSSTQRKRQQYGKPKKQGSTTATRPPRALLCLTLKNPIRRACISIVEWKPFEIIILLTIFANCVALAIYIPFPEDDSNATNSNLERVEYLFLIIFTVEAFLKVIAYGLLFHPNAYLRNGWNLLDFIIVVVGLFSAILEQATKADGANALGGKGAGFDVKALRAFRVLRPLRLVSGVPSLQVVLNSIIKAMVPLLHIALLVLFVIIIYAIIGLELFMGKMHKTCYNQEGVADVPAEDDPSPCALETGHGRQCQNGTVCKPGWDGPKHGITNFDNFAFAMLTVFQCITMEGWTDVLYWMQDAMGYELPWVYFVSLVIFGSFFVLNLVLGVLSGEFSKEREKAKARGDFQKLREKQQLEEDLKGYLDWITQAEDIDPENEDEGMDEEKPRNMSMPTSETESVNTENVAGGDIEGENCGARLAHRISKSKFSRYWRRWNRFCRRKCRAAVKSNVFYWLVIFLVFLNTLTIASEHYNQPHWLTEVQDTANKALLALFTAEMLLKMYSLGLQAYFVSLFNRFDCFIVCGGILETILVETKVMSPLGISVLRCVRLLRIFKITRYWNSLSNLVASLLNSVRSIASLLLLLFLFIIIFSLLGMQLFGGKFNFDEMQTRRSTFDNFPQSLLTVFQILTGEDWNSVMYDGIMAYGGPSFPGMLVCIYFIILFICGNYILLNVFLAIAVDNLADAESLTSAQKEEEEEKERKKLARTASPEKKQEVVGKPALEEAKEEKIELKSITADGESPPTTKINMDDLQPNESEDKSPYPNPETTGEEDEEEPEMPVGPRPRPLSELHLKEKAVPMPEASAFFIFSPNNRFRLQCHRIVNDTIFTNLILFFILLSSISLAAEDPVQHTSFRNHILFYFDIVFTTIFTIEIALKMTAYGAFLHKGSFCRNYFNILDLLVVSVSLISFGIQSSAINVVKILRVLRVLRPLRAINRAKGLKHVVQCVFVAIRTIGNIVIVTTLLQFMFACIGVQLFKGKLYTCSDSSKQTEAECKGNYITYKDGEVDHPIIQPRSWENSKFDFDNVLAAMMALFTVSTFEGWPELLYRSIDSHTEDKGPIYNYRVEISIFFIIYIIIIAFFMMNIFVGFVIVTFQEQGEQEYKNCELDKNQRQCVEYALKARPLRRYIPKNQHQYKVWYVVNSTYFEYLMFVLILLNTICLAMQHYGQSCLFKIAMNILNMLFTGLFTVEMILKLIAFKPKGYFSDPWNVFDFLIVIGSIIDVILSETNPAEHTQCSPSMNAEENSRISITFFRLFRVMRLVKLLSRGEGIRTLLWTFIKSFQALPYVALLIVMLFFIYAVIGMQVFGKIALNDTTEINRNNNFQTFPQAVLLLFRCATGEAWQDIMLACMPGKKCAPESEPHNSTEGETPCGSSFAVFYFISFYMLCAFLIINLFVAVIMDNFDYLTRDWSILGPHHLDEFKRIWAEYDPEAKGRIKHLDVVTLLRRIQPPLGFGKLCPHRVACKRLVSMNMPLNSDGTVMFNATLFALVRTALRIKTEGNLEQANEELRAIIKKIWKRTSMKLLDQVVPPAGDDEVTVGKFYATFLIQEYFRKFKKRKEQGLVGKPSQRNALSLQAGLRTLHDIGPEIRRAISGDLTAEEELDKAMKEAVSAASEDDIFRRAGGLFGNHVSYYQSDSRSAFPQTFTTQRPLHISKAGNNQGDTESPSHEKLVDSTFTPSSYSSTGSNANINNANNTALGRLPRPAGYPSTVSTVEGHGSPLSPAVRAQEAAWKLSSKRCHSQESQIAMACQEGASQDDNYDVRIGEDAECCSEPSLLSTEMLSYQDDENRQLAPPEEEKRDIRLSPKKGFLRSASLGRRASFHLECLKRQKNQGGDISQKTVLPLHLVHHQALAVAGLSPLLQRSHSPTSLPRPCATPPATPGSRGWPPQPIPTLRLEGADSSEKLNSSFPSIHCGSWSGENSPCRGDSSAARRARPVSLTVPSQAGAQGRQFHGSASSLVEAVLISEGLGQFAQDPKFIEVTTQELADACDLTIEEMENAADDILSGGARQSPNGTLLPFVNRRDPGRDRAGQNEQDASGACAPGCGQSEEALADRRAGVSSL
CaV1.2–HA (Asp-710) (P15381, form named): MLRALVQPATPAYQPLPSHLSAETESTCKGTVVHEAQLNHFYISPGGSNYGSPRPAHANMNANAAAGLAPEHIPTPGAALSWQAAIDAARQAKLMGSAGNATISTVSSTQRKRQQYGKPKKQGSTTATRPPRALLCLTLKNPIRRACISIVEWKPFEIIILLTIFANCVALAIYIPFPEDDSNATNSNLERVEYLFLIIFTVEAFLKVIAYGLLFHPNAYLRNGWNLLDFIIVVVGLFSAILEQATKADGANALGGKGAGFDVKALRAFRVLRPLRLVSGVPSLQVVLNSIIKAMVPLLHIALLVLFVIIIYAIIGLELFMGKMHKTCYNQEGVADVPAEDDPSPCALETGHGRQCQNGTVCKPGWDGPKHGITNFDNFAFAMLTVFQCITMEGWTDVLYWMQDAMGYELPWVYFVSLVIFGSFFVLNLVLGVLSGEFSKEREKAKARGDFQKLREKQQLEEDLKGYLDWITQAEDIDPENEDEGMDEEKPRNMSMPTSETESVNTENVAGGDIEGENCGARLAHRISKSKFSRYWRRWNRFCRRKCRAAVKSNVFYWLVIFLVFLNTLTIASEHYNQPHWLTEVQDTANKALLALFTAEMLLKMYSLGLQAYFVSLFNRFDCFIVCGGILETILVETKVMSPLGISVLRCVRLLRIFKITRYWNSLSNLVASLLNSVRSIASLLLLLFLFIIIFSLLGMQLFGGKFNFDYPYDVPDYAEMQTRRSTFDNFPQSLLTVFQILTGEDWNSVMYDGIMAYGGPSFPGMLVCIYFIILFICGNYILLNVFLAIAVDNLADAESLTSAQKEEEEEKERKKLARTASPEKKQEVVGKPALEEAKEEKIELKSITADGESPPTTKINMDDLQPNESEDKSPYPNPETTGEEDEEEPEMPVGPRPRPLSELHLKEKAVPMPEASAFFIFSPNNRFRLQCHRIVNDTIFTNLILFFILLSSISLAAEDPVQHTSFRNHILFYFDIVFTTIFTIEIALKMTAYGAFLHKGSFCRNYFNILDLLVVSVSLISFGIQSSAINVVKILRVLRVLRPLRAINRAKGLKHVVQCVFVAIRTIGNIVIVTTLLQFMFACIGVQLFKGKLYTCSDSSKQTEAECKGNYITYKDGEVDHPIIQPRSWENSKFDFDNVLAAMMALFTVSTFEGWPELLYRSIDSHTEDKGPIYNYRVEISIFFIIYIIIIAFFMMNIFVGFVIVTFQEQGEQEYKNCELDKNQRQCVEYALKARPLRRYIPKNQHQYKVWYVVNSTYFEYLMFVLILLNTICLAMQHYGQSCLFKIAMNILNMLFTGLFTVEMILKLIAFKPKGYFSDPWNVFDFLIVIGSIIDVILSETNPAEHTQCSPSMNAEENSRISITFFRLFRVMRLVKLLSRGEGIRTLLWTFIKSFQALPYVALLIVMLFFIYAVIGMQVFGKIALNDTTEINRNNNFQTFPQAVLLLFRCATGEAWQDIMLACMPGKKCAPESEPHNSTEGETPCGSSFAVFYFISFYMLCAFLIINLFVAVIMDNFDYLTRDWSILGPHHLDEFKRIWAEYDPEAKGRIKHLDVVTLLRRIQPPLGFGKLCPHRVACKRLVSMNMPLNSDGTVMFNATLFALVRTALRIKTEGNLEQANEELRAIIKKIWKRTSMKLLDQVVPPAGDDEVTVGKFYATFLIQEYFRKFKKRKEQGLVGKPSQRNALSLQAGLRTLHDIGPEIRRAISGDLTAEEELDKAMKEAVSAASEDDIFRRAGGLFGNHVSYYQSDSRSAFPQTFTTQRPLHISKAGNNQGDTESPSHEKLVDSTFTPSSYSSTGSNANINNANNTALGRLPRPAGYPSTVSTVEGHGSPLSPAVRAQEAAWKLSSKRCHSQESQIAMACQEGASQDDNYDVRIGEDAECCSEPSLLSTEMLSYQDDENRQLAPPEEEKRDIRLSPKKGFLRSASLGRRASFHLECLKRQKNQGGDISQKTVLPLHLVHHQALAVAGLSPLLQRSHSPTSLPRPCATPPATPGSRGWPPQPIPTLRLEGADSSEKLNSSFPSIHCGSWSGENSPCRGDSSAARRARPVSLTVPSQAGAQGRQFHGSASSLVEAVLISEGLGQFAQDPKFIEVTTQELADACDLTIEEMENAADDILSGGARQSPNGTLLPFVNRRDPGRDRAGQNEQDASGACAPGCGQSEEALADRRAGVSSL
CaV1.2–HA (Glu-331) (P15381, form named): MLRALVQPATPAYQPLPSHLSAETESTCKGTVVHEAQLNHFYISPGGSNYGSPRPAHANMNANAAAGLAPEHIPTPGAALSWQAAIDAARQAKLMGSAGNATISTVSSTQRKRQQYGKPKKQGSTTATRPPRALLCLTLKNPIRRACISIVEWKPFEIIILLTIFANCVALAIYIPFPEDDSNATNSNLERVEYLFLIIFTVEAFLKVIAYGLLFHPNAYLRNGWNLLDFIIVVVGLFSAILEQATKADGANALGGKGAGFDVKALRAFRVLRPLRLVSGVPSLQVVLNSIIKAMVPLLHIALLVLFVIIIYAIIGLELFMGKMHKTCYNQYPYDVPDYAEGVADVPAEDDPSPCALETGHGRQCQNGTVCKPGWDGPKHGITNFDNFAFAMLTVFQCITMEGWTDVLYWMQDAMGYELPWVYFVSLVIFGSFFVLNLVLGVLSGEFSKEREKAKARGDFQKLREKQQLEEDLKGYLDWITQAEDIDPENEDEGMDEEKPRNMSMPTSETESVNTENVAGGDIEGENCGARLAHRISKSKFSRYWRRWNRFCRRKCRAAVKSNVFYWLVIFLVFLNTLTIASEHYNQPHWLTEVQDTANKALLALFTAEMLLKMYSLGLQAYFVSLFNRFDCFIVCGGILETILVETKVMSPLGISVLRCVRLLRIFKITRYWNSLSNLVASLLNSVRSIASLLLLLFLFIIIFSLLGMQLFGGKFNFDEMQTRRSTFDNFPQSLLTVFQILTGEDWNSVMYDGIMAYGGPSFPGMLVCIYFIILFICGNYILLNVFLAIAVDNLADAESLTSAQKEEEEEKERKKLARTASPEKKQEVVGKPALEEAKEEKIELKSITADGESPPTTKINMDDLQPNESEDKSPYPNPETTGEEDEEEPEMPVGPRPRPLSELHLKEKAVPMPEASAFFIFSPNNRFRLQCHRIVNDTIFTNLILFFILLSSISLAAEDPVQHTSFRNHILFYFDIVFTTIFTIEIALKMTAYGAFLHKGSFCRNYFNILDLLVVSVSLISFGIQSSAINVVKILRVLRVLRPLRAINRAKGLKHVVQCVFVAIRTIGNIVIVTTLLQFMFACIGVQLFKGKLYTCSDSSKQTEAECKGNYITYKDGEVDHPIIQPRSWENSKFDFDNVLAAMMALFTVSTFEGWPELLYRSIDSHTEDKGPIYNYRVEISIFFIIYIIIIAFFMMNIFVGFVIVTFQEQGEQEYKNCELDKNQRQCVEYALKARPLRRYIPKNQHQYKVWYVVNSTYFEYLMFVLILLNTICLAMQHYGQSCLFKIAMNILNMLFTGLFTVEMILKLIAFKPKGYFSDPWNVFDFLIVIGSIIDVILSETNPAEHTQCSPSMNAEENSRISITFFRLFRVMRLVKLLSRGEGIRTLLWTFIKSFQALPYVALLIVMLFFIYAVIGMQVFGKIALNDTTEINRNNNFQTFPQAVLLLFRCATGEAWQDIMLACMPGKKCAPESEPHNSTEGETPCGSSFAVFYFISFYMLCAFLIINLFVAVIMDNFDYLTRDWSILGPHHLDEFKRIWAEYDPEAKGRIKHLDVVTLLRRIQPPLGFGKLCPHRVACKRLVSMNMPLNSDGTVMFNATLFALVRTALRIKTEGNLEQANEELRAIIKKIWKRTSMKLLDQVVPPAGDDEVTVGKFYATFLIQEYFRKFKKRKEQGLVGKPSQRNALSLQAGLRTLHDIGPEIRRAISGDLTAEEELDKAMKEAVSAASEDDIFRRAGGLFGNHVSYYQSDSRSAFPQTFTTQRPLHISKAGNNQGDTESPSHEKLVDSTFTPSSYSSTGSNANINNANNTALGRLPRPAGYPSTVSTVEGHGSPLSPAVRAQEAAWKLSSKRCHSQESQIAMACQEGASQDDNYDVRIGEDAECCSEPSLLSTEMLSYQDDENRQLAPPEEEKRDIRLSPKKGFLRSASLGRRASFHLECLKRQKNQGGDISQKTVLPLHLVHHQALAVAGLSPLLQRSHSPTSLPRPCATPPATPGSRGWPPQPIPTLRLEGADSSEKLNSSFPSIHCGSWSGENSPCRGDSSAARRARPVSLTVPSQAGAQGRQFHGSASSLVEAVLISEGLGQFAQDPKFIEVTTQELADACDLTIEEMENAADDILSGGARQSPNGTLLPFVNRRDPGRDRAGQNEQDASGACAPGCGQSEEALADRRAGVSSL

Tests used:
Assay in all cases: co-IP; HEKT cells co-transfected with CaVβ3–c-Myc, CaV1.2 WT or mutant and mCherry–CaVα2δ1–HA; homogenised in 20 mM NaMOPS pH 7.4, 300 mM NaCl, 1% digitonin; overnight with anti-c-Myc magnetic beads to capture CaVβ3; washed in 0.2% digitonin; blots with anti-CaV1.2, anti-CaVα2δ1 (1, 20 and 200 s exposures) and anti-CaVβ3
CaVβ3–c-Myc (rat) = CaVβ3–c-Myc (rat) (UniProt P54287)
CaV1.2 D180A (rabbit) = CaV1.2 D180A (rabbit) (UniProt P15381)
CaV1.2 WT (rabbit) = CaV1.2 WT (rabbit) (UniProt P15381)
[1] = target: CaV1.2–HA (Glu-331) (rabbit) (UniProt P15381)
CaV1.2 D181R (rabbit) = CaV1.2 D181R (rabbit) (UniProt P15381)
[2] = target: CaV1.2–HA (Asp-710) (rabbit) (UniProt P15381)
CaV1.2 E179A (rabbit) = CaV1.2 E179A (rabbit) (UniProt P15381)
CaV1.2 D181G (rabbit) = CaV1.2 D181G (rabbit) (UniProt P15381)
CaV1.2 D181E (rabbit) = CaV1.2 D181E (rabbit) (UniProt P15381)
CaV1.2 R1119A (rabbit) = CaV1.2 R1119A (rabbit) (UniProt P15381)

Q: Which binding (CaVβ3–c-Myc (rat)) does the source give for “CaV1.2 D180A (from UniProt P15381 1-2171)” here?
A: The binding was “binds”.

Q: Which binding (CaVβ3–c-Myc (rat)) does the source give for “CaV1.2 D180E (from UniProt P15381 1-2171)” here?
A: The binding was “binds”.

Q: With “CaV1.2 D181A (from UniProt P15381 1-2171)” as the substance, how does the binding (CaVβ3–c-Myc (rat)) read?
A: Its binding is “binds”.

Q: With “CaV1.2 D181E (from UniProt P15381 1-2171)” as the substance, how does the binding (CaVβ3–c-Myc (rat)) read?
A: Its binding is “binds”.

Q: With “CaV1.2 E179A (from UniProt P15381 1-2171)” as the substance, how does the binding (CaVβ3–c-Myc (rat)) read?
A: Its binding is “binds”.

Q: CaV1.2 WT (from UniProt P15381 1-2171) was tested. Which binding (CaVβ3–c-Myc (rat)) did it give?
A: Its binding is “binds”.

Q: “CaV1.2–HA (Asp-710) (from UniProt P15381 1-2171)” was tested. Which binding (CaVβ3–c-Myc (rat)) did it give?
A: Its binding is “binds”.

Q: With “CaV1.2–HA (Glu-331) (from UniProt P15381 1-2171)” as the substance, how does the binding (CaVβ3–c-Myc (rat)) read?
A: The binding was “binds”.

Q: How did the binding (CaVβ3–c-Myc (rat)) turn out when “CaV1.2–HA (Ser-182) (from UniProt P15381 1-2171)” was run?
A: Its binding is “binds”.

Q: What does the source list for “mCherry–CaVα2δ1–HA (from UniProt P54290 25-1091)”?
A: binding (CaV1.2 D180A (rabbit)): binds; binding (CaV1.2 WT (rabbit)): binds; binding [1]: binds; binding (CaV1.2 D181R (rabbit)): no binding; binding [2]: binds; binding (CaV1.2 E179A (rabbit)): binds; binding (CaV1.2 D181G (rabbit)): no binding; binding (CaV1.2 D181E (rabbit)): binds; binding (CaV1.2 R1119A (rabbit)): binds
